Experimental data as given in BigSolDB 2.1.

Nc1ccc(S(N)(=O)=O)cc1
Conditions | solubility (mole fraction)
in acetone, 283.45 K | 0.0897
in acetone, 288.45 K | 0.0918
in acetone, 293.35 K | 0.0945
in acetone, 298.15 K | 0.0969
in acetone, 303.15 K | 0.0994
in acetone, 308.15 K | 0.0983
in acetone, 313.15 K | 0.104
in acetone, 318.15 K | 0.11
in acetone, 323.15 K | 0.116
in isopropanol, 283.25 K | 0.000534
in isopropanol, 288.95 K | 0.000814
in isopropanol, 293.65 K | 0.00105
in isopropanol, 298.15 K | 0.00164
in isopropanol, 303.15 K | 0.00212
in isopropanol, 308.15 K | 0.0031
in isopropanol, 313.15 K | 0.00383
in isopropanol, 318.15 K | 0.00498
in isopropanol, 323.15 K | 0.00674
in n-butanol, 283.15 K | 0.000771
in n-butanol, 288.75 K | 0.00102
in n-butanol, 293.25 K | 0.00128
in n-butanol, 298.25 K | 0.00166
in n-butanol, 303.15 K | 0.00203
in n-butanol, 308.15 K | 0.00255
in n-butanol, 313.15 K | 0.00309
in n-butanol, 318.15 K | 0.00378
in n-butanol, 323.15 K | 0.0045
in n-propanol, 283.35 K | 0.00151
in n-propanol, 288.55 K | 0.00197
in n-propanol, 293.15 K | 0.00229
in n-propanol, 298.35 K | 0.00271
in n-propanol, 303.15 K | 0.00333
in n-propanol, 308.15 K | 0.00386
in n-propanol, 313.15 K | 0.00452
in n-propanol, 318.15 K | 0.00545
in n-propanol, 323.15 K | 0.00622
in sec-butanol, 283.25 K | 0.000354
in sec-butanol, 288.15 K | 0.000459
in sec-butanol, 293.25 K | 0.000597
in sec-butanol, 298.15 K | 0.000762
in sec-butanol, 303.15 K | 0.000981
in sec-butanol, 308.15 K | 0.00139
in sec-butanol, 313.15 K | 0.00175
in sec-butanol, 318.15 K | 0.00235
in sec-butanol, 323.15 K | 0.00282
